Test results from PubChem BioAssay (Tox21).
This list was built around the results that the source calls inconclusive (neither active nor inactive); the mix of calls is not that of the screen. For some assays here: Where the call is inconclusive, the potency comes from a doubtful curve fit. Some compounds were tested as several samples or in several runs, with calls that do not always agree. Activity calls are given as the source filed them. Unless noted, the call rests on the fitted dose curve; in most records, active means well fitted curve in the direction sought with a large enough effect in the repeat runs; inconclusive means weak or mixed curves; inactive means no such curve, though single readings can be large; an effect the other way counts as inactive or inconclusive.

Assays:
[1] = qHTS assay for small molecules that induce genotoxicity in human embryonic kidney cells expressing luciferase-tagged ATAD5 - cell viability (AID 651634; calls by dose curve; further: nearly all actives have a fitted effect of over 25% in size; further: potency means the concentration at half of the fitted maximal effect)
How it was run: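 Quantitative high-throughput format. HEK293T cells expressing ATAD5 fused to luciferase were plated at 2,000 cells/well and treated 15.5 hr with compound versus DMSO. Viability was determined by fluorescent live-cell protease substrate, 30 min at 37C.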

[2] = qHTS assay to identify small molecule antagonists of the estrogen related receptor signaling pathway with the pleiotropic PPARgamma coactivator (PGC) from Tox21 10K library - cell viability counter screen (AID 1224840; active means well fitted cell-killing curve with a large enough effect in the repeat runs, not every such curve was filed as active; inconclusive means weak or mixed curves, or effect the other way; inactive means no such curve, though single readings can be large or run the other way; further: nearly all actives have a fitted effect of over 40% in size; further: potency means the concentration at half of the fitted maximal effect)
How it was run: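 Viability counter screen, PGC/ERR cells: 17.5 h compound exposure at 37 C, CellTiter-Fluor fluorescence endpoint.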

[3] = target: Estrogen receptor (Homo sapiens) (UniProt P03372); test: qHTS assay to identify small molecule antagonists of the estrogen receptor alpha (ER-alpha) signaling pathway using the BG1 cell line in the presence of 0.1 nM 17-beta-estradiol (AID 1259244); further: on the % scale 0 is the no-effect control and ±100 the full control effect; nearly all actives have a fitted effect of over 50% in size
Chain of UniProt P03372 (P03372 whole entry, looked up): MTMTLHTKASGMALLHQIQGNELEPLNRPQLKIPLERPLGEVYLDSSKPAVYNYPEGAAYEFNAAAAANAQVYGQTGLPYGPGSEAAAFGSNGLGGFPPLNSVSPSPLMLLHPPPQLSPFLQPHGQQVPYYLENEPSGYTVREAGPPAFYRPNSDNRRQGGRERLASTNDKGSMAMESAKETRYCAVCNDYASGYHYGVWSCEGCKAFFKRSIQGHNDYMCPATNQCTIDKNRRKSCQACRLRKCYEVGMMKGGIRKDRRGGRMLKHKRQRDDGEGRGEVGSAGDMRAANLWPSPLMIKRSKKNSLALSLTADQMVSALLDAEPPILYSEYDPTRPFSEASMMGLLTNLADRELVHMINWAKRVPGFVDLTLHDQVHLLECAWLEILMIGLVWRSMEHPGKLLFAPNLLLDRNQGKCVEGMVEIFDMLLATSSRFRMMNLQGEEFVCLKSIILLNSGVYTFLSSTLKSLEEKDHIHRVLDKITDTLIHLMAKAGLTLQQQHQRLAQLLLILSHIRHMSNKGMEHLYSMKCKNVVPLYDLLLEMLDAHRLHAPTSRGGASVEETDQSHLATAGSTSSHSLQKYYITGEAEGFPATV
How it was run: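 Seeding of stripped-serum-adapted VM7Luc4E2 cells, 24 h attachment, compound transfer, then 0.1 nM final 17beta-estradiol; after 22 h incubation, ONE-Glo reagent and luminescence reading.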

[4] = qHTS assay to identify small molecule agonists or antagonists of the thyroid stimulating hormone receptor (TSHR) signaling pathway - wild type cell line counter screen (AID 1259384; calls by dose curve; further: potency means the concentration at half of the fitted maximal effect; on cAMP activity change: on the % scale 0 is the no-effect control and ±100 the full control effect); conditions: HEK293 wild type, cAMP HTRF counter-screen
How it was run: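 Wild-type Hek293 cells, 800/well, 18 h at 37C, then compound with Ro20-1724 for 30 min RT. cAMP by HTRF (cAMP-d2/anti-cAMP cryptate), 1 h RT, fluorescence read. 15 concentrations, triplicates.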

[5] = qHTS assay to identify small molecule agonists of the estrogen related receptor signaling pathway with the pleiotropic PPARgamma coactivator (PGC) from Tox21 10K library (AID 1224842); further: potency means the concentration at half of the fitted maximal effect; nearly all actives have a fitted effect of over 15% in size
How it was run: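 PGC/ERR reporter cell line, 2,000 cells per well, incubated 6 h at 37 C before 23 nL compound in DMSO was added. After 18 h at 37 C, One-Glo luminescence read following 30 min at room temperature.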

[6] = qHTS assay to identify small molecule agonists of the estrogen related receptor (ERR) signaling pathway from Tox21 library (AID 1224849; calls by dose curve; further: on the % scale 0 is the no-effect control and ±100 the full control effect; nearly all actives have a fitted effect of over 15% in size); conditions: ERR reporter cell line, ONE-Glo luciferase, 18 h; at 92.4 µM (top of the series) unless noted
How it was run: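 Reporter cells (ERR, NTP source) treated with Tox21 10K compounds 18 h, 37 C. Readout: ONE-Glo luminescence, 30 min RT.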

[7] = qHTS assay to identify small molecule HDAC inhibitors (AID 1259364); further: potency means the concentration at half of the fitted maximal effect;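 further: wild-type HCT-116 cells with endogenous class I/II HDAC activity; nearly all actives have a fitted effect of over 45% in size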
How it was run: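 After a 2 hr compound incubation (37C, 5% CO2), HCT-116 cells seeded at 1,500/well the day before received HDAC-Glo reagent; signal read as luminescence after 30 min at room temperature.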

[8] = A CellTox Green Cytotoxicity Assay to monitor cytotoxicity in HepG2 cells - 8 hour (AID 1224890); further: on the % scale 0 is the no-effect control and ±100 the full control effect; nearly all actives have a fitted effect of over 45% in size
How it was run: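 Fluorescent DNA-binding dye, 600 HepG2 cells/well, 5 h preincubation then compound in DMSO; same plates read at 0–40 h, 37 C.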

[9] = target: Nuclear receptor subfamily 1 group I member 3 (Homo sapiens) (UniProt Q14994); test: qHTS assay to identify small molecule antagonists of the constitutive androstane receptor (CAR) signaling pathway (AID 1224838); further: nearly all actives have a fitted effect of over 40% in size; further: potency means the concentration at half of the fitted maximal effect; on activity, negative = inhibition: on the % scale 0 is the no-effect control and ±100 the full control effect
Chain of UniProt Q14994 (Q14994 whole entry, looked up): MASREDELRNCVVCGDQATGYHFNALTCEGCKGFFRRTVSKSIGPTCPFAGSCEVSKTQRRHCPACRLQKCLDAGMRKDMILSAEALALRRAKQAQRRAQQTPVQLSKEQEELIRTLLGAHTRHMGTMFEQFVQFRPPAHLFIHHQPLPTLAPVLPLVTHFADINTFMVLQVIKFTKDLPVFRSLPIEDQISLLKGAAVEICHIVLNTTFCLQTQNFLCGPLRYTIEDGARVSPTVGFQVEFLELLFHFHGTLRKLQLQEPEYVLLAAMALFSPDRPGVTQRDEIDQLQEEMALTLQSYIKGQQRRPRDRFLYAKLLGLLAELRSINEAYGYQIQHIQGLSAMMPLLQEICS
How it was run: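 CITCO-stimulated (50 nM final) HepG2 cells stably transfected with hCAR and CYP2B6-2.2kb luciferase were exposed to compounds at 15 concentrations for 24 h at 37 C/5% CO2. A luciferase reagent was added and luminescence recorded after 30 min.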

[10] = Caspase-3/7 induction in CHO-K1 cells by small molecules, qHTS assay (AID 1346980); further: on the % scale 0 is the no-effect control and ±100 the full control effect; nearly all actives have a fitted effect of over 15% in size
How it was run: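 Wild-type CHO-K1 cells exposed to compounds for 17hr at 37 C, 5% CO2. Caspase-3/7 activity then measured by Caspase-Glo 3/7 luminescence after 30min at room temperature.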

[11] = qHTS assay for small molecule agonists of the p53 signaling pathway - cell viability (AID 651633; calls by dose curve; further: nearly all actives have a fitted effect of over 30% in size; further: potency means the concentration at half of the fitted maximal effect)
How it was run: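 p53RE-bla cells were treated with compound for 16 hours at 37 C. Cytotoxicity was then measured as CellTiter-Glo luminescence after 30 min at room temperature.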

[12] = qHTS assay for small molecule disruptors of the mitochondrial membrane potential - cell viability (AID 720634; calls by dose curve; further: potency means the concentration at half of the fitted maximal effect; nearly all actives have a fitted effect of over 20% in size)
How it was run: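 Same-well counter-screen: following the MMP dye addition, CellTiter-Glo was added to 1 hr compound-treated HepG2 cells and luminescence read after 30 min at room temperature.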

[13] = qHTS assay to identify small molecule antagonists of the constitutive androstane receptor (CAR) signaling pathway - cell viability counter screen (AID 1224837); further: on the % scale 0 is the no-effect control and ±100 the full control effect; nearly all actives have a fitted effect of over 45% in size
How it was run: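 In quantitative HTS format, compounds at 15 concentrations were applied to HepG2 cells double-transfected with hCAR and CYP2B6-2.2kb under 50 nM CITCO stimulation; live-cell protease activity was read after 23 hr via CellTiter-Fluor.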

[14] = qHTS RealTime-Glo MT Cell Viability Assay in HepG2 cells - 32 hour (AID 1224877); further: nearly all actives have a fitted effect of over 55% in size; further: potency means the concentration at half of the fitted maximal effect
How it was run: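 Cells + NanoLuc/prosubstrate dispensed (600 cells/well) → 5 h at 37 C/5% CO2 → compounds in DMSO transferred → 40 h incubation at 37 C, luminescence read at 0, 8, 16, 24, 32, 40 h.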

[15] = qHTS assay to identify small molecule agonists of the vitamin D receptor (VDR) signaling pathway - cell viability counter screen (AID 743224); further: potency means the concentration at half of the fitted maximal effect; nearly all actives have a fitted effect of over 50% in size
How it was run: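 In parallel with the bla FRET readout, cytotoxicity toward VDR-bla cells after 16 h compound exposure was assessed by CellTiter-Glo, with luminescence recorded after a 30 min room-temperature incubation.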

[16] = qHTS assay to identify small molecule that activate the aryl hydrocarbon receptor (AhR) signaling pathway - cell viability counter screen (AID 743086); further: nearly all actives have a fitted effect of over 45% in size; further: potency means the concentration at half of the fitted maximal effect
How it was run: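 HepG2-AhR-luc (HG2L7.5c1) cells, 4000/well, treated 24 h at 37 C with compound; viability measured as CellTiter-Fluor fluorescence after 30 min in the same wells as the luciferase read.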

[17] = target: Acetylcholinesterase (Homo sapiens) (UniProt P22303); test: Acetylcholinesterase (AChE) small molecule antagonists: enzyme-based qHTS assay (AID 1347397; calls by dose curve; further: potency means the concentration at half of the fitted maximal effect; nearly all actives have a fitted effect of over 55% in size); conditions: Potency: AChE enzyme activity inhibition; outcome: AChE enzyme activity inhibition
Chain of UniProt P22303 (P22303 whole entry, looked up): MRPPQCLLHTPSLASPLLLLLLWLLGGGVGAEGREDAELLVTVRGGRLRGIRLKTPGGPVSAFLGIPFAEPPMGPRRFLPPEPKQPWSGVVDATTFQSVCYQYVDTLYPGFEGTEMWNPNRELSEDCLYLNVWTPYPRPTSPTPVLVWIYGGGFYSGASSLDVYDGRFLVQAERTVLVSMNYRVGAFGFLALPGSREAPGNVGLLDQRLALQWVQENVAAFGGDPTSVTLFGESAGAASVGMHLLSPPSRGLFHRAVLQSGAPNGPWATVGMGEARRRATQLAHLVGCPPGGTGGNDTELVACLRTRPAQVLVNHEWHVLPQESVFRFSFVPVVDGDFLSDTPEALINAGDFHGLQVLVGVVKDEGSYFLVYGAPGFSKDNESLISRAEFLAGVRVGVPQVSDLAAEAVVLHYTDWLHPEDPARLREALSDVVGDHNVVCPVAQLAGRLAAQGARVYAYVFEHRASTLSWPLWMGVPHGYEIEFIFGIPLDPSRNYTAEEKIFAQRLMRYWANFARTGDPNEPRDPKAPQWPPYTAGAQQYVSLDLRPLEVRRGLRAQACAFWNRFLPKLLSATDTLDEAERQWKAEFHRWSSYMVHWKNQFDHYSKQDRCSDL
How it was run: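 Colorimetric DTNB read-out of thiocholine released from acetylthiocholine by recombinant human AChE (50 mU/mL as dispensed). Compounds were preincubated 30 min at RT before substrate/DTNB addition, with a 10 min RT reaction.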

[18] = qHTS assay to identify small molecule antagonists of the TGF-beta/Smad signaling pathway (AID 1346924; active means well fitted inhibition curve with a large enough effect in the signal ratio in the repeat runs, not every such curve was filed as active; inconclusive means weak or mixed curves; the % refers to the signal ratio); conditions: SBE-bla HEK293T, TGF-beta/Smad reporter, beta-lactamase ratio; activity, negative = inhibition: at 76.8 µM (top of the series) unless noted
How it was run: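 Read-out was FRET-substrate fluorescence (405 nm excitation; 460 and 530 nm emission) after 2 h at room temperature. Before that, cells carrying a Smad-binding-element beta-lactamase reporter in HEK 293T had been stimulated 5 h at 37 C with TGF-beta1 (0.25 ng/mL addition solution) in the presence of test compound.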
Tags describe the fitted curve by direction and shape.

CC(C)(C)C(=O)Cl
Potency [1]: inactive
Potency [2]: inactive

CC(C)NCC(O)c1ccc(N)c(C#N)c1 (configuration not stated)
Potency [3]: inactive
Potency [4]: inconclusive: 0.00224 µM

O=C1CN=C(c2ccccc2)c2cc([N+](=O)[O-])ccc2N1
Potency [5]: inconclusive: 33.5 µM [activator]
activity change, positive = activation [6]: inconclusive: 12.2% [at 42.5 µM]
Potency [7]: inactive

CC(C)(Cl)Cl
Potency [8]: inactive

CCSC(=O)N1CCCCCC1
Potency [9]: active: 26.5 µM

Clc1cccc(Cl)c1Cl
activity change, positive = activation [6]: inconclusive: 17.1%

O=c1ccc(=O)[nH][nH]1
cAMP activity change ([4]; at 92.4 µM (top of the series), hits give high values): inconclusive: -0.419%
Potency [10]: inactive

O=C(O)C(F)(F)C(F)(F)C(F)(F)C(F)(F)C(F)(F)C(F)(F)C(F)(F)C(F)(F)F
Potency [11]: active: 61.1 µM
Potency [1]: inconclusive: 54.5 µM [falling, partial curve, poor fit]
Potency [12]: inconclusive: 77 µM [cytotoxic, partial curve, poor fit]
Potency [13]: inactive
Potency [14]: inconclusive: 21.9 µM [cytotoxic, single point]
Potency [3]: inactive

O=c1[nH]c(Cl)c(Cl)cc1Cl
Potency [7]: inconclusive: 68.6 µM [inhibitor, single point]

C=CCc1ccccc1O
Potency [3]: inactive

CCNc1nc(Cl)nc(NC(C)(C)C#N)n1
Potency [1]: inactive
Potency [15]: inconclusive: 2.45 µM [rising, full curve, poor fit]
Potency [2]: inactive

Nc1c(Br)cc([N+](=O)[O-])cc1[N+](=O)[O-]
Potency [11]: inconclusive: 61.8 µM [cytotoxic, partial curve, poor fit]
Potency [1]: active: 49.1 µM

CNC(=O)O/N=C(\C)SC
Potency [11]: inactive

CC(Oc1cccc(Cl)c1)C(=O)O (configuration not stated)
Potency [16]: inconclusive: 2.73 µM [rising, full curve, poor fit]

OCCCl
Potency [1]: inactive
Potency [16]: inactive

COc1ccc(C(=O)c2c(C)n(CCN3CCOCC3)c3ccccc23)cc1
Potency [4]: inconclusive: 22.8 µM

CC(C)=CCN1CC[C@@]2(C)c3cc(O)ccc3C[C@@H]1[C@@H]2C
Potency [17]: inconclusive: 78.5 µM [falling, partial curve, poor fit]

O=NN1CCN(N=O)CC1
activity change, positive = activation [6]: inactive: 3%

O=C(CCCCl)c1ccc(F)cc1
Potency [9]: inactive

c1ccc2c(c1)oc1ccccc12
Potency [11]: inactive
Potency [14]: inactive

O=C(Nc1ccccc1)N(Cc1ccc(Cl)cc1)C1CCCC1
Potency [1]: inconclusive: 43.3 µM [falling, partial curve, poor fit]
Potency [16]: inconclusive: 68.6 µM [falling, single point]
Potency [15]: inconclusive: 54.9 µM [cytotoxic, single point]
Potency [2]: inconclusive: 61.1 µM [cytotoxic]
Potency [14]: inconclusive: 49 µM [cytotoxic, partial curve, poor fit]

CCOP(=S)(OCC)Oc1cnc2ccccc2n1
activity, negative = inhibition [18]: inconclusive: 2.63%
Potency [17]: inconclusive: 79.6 µM [falling, single point]

CCOC(=O)N(C)N=O
Potency [13]: inactive
Potency [7]: inactive

c1ccc2nc(N3CCNCC3)ccc2c1
Potency [16]: inconclusive: 33.5 µM [falling, single point]

CNC(=O)N(C)c1nc2ccccc2s1
Potency [5]: inconclusive: 17.2 µM [activator, partial curve]
activity change, positive = activation [6]: active: 89.8%
